This passage reports displacement results from PubChem BioAssay AID1240 (Sanford-Burnham Center for Chemical Genomics, 2008).

Out of some 50,000 compounds screened, about 800 (1.6%) showed an effect of 50% or more. The list shows a part of the results.

For this assay, the target named is Bcl-2-like protein 10 (Homo sapiens) (UniProt Q9HD36). The assay can be described thus: TR3 peptide-Bcl-B binding displacers, biochemical primary FP assay, phenotype converters (AID 1240).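 Further: 0% = Bcl-B with tracer peptide and DMSO and 100% = tracer peptide lacking Bcl-B.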 Conditions: GST-Bcl-B / FITC-TR3 peptide fluorescence polarization; stronger effect = higher value; compound at 3.75 mg/L. (Polarisation of emitted light reports the rotation of a fluorescent probe.)
UniProt Q9HD36, sequence (Q9HD36 whole entry, looked up): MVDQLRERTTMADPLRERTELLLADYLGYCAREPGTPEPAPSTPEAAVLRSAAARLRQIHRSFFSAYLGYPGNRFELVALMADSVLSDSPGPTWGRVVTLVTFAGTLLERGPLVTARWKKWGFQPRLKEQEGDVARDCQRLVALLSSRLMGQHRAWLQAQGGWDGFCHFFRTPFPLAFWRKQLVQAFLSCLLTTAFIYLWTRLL
On to `O=C1NC(=O)C(=Cc2cc(Cl)c(OCc3cccc(F)c3)c(Cl)c2)C(=O)N1`, for which the displacement is -6.4%.

In the case of `O=C(CCC1C(=O)OCN1C(=O)OCc1ccccc1)ONc1ccc([N+](=O)[O-])cc1` (configuration not stated), the displacement worked out at 3.6%.

In the case of `CCOC(=O)C1=C(C)N=c2s/c(=C\c3cccc(OC)c3)c(=O)n2C1c1ccc(C)cc1` (configuration not stated), the displacement amounted to 2.3%.

`CCOC(=O)C(CC)Oc1ccc2ccc(=O)oc2c1` (configuration not stated): the displacement was -0.6%.

Take `O=C1c2ccccc2C(=O)N1CCCc1nc2ccccc2c(=O)n1Cc1ccccc1`: the displacement was -10%.

On to `O=C1NC(=O)N(c2ccccc2)C(=O)/C1=C\c1ccc(-c2cccc([N+](=O)[O-])c2)o1`, for which the displacement was determined as 39.3%.

As to `NC1=C(Nc2cccc3ccccc23)C(=O)c2ccccc2C1=O`, the displacement worked out at 6.7%.

On to `COc1ccccc1N1C(=O)/C(=C/C(C)=C/c2ccccc2)SC1=S`, for which the displacement was -1.1%.

Take `Cc1ccc(C2(c3ccc(C)cc3)CC2C(=O)Nc2ccc([N+](=O)[O-])cc2O)cc1` (configuration not stated): the displacement was found to be 5.8%.

On to `Cc1ccc(S(=O)(=O)n2cnc(C)c2)cc1`, for which the displacement was 11.4%.

As for `CC(NS(=O)(=O)c1cccc([N+](=O)[O-])c1)C1C2CC3CC(C2)CC1C3` (configuration not stated), the displacement worked out at 6.9%.

For the compound `CCC(=O)Nc1ccc2oc(-c3cccnc3)nc2c1`, the displacement was 13.8%.

As for `O=S(=O)(N/N=C/c1ccccc1C(F)(F)F)c1ccc(Cl)cc1`, the displacement came out at 10.6%.

Turning to `CC1(C)NC(=O)N(CC(O)CN(c2ccccc2)c2ccccc2)C1=O` (configuration not stated), the displacement is -10.5%.

As to `CCOC(=O)C(=O)N1c2ccccc2CCc2ccccc21`, the displacement was 0.6%.

Turning to `O=C(c1cnn2c1NC(c1cccs1)CC2C(F)(F)F)N1CCOCC1` (configuration not stated), the displacement is -1.3%.

For the compound `CCCOc1ccc(C(=S)N2CCN(c3cccc(Cl)c3)CC2)cc1`, the displacement was 17.9%.

In the case of `O=C(c1ccccc1F)N1CCN(c2ccc([N+](=O)[O-])c3ncccc23)CC1`, the displacement is 12.1%.

On to `Cc1cc(C2(c3cc(C)c(NC(=O)CN4CCCCC4)c(C)c3)CCCCC2)cc(C)c1NC(=O)CN1CCCCC1`, for which the displacement is -8.8%.

For `O=C(NC1C2CC3CC(C2)CC1C3)c1cccc(I)c1` (configuration not stated), the displacement was found to be 11.7%.

On to `CC1CCN(c2cc(N3CCN(C(=O)c4ccc(F)c(F)c4)CC3)c([N+](=O)[O-])cc2F)CC1`, for which the displacement is -13.7%.

As to `COc1cccc(-n2c(C=C3C(=O)Nc4ccc(C)cc43)nc3ccccc3c2=O)c1`, the displacement was determined as 7.5%.

On to `COc1ccc(CCNS(=O)(=O)c2ccc([N+](=O)[O-])cc2)cc1`, for which the displacement is 5.7%.

Turning to `CCOC(=O)C1=C(C)N=c2s/c(=C\c3cccs3)c(=O)n2C1c1ccc(OCC)cc1` (configuration not stated), the displacement came to 7.8%.

`CCCC(=O)Nc1cc(-c2nc3ncccc3o2)ccc1C`: the displacement was 4.5%.

As for `O=C(NCC1COc2ccccc2O1)c1ccco1` (configuration not stated), the displacement is -7.3%.

In the case of `O=C(CCN1C(=O)c2ccccc2C1=O)NCC1CCCO1` (configuration not stated), the displacement worked out at 9.6%.

Take `COc1cccc(-c2nc3sc(C)c(C)c3c(=O)[nH]2)c1O`: the displacement amounted to 28.7%.

Turning to `O=C(CSc1nnc2n(Cc3ccccc3)c(=O)c3c4c(sc3n12)CCCC4)c1ccccc1`, the displacement was -2.9%.

In the case of `O=C(/C=C/c1ccc(Cl)cc1)Nc1cccc([N+](=O)[O-])c1`, the displacement was -8.2%.

For `O=Cc1ccc(OCc2ccc(F)cc2)cc1`, the displacement worked out at 5.4%.

As for `COc1ccc(C(=O)Nc2cccc(C(=O)Nc3nccs3)c2)cc1`, the displacement was -9.6%.

Take `CCOc1ccc(NC(=O)c2c(Cl)ccc(Cl)c2OC)cc1`: the displacement is -5.3%.

Take `NC(=O)N/N=C/c1ccc(-c2cccc(C(F)(F)F)c2)o1`: the displacement came out at 3.1%.

On to `O=C1OC(c2ccccc2F)=N/C1=C\c1ccc(Br)cc1`, for which the displacement was found to be 9%.

Turning to `C/C=C/C(=O)N1c2ccc(OC)cc2C(C)=CC1(C)C`, the displacement was -6.5%.

`CN(C)c1ccnc2sc3c(N(CCO)CCO)ncnc3c12`: the displacement is -3.4%.

On to `O=C(CSc1nnc(-c2cccc(F)c2)n1-c1ccccc1)Nc1ccc(Br)cc1`, for which the displacement worked out at 5.3%.

As to `O=C(c1cc2ccccc2o1)N1CCC(c2ccccc2)C1` (configuration not stated), the displacement was 11.4%.

Consider `COc1ccc(OC)c(NC(=O)c2ccc(C)c(C)c2)c1`, for which the displacement amounted to 14.8%.

Regarding `COC(=O)COc1ccc(C(=O)CSc2nc3cc(OC)ccc3n2C)cc1`, the displacement is 1.1%.

`CC1=NN(c2ccc(C)c(C)c2)C(=O)/C1=C\c1ccc(N(C)C)cc1`: the displacement stood at 11.4%.

As to `O=C1c2cccc3cccc(c23)C(=O)N1c1ccc(Br)cn1`, the displacement was determined as 2.6%.

As for `c1ccc2c(-c3nc4ccccc4o3)cccc2c1`, the displacement came to 2.1%.

As for `CCOC(=O)c1c(NC(=O)CCCC(=O)O)sc2c1CCC(C(C)(C)C)C2` (configuration not stated), the displacement was determined as 1.4%.

Turning to `COc1cccc(-n2c(O)c(/C=C3\C=c4ccccc4=N3)c(=O)[nH]c2=O)c1`, the displacement is -0.4%.

Turning to `COC(=O)c1c(NC(=O)CCC(=O)O)sc(C)c1-c1ccc(C)cc1`, the displacement is -7.5%.

Take `O=C1c2ccc(Oc3ccc([N+](=O)[O-])cc3)cc2C(=O)N1c1nc2ccccc2s1`: the displacement is -8.9%.

With `CC(=O)COc1cc(C)cc2oc(=O)cc(-c3ccccc3)c12`, the displacement came out at 9.1%.

For the compound `COc1ccc2[nH]c3c(c2c1)CCC/C3=N\N`, the displacement is 1.8%.

With `O=C1NC(=O)N(c2ccc(Cl)cc2)C(=O)/C1=C\c1ccc(-c2ccc(C(=O)O)c(Cl)c2)o1`, the displacement is -7.8%.

Take `COC(=O)c1ccc(C(=O)OC)c(NC(=O)/C=C/c2cccc([N+](=O)[O-])c2)c1`: the displacement is -3.1%.

On to `Cc1ccc(-n2cc(/C=c3\sc4nc5cc(C)c(C)cc5n4c3=O)cn2)cc1C`, for which the displacement is -8.9%.

`O=C(O)c1ccc(N2C(=O)CC(SC(=NCCc3ccccc3)Nc3ccc(F)cc3)C2=O)cc1` (configuration not stated): the displacement is -3.5%.

Take `COc1ccc(CNC(=O)COc2cccc(C)c2)cc1`: the displacement is -16.4%.

As to `O=C(O)C(Sc1nc2ccccc2s1)c1ccccc1` (configuration not stated), the displacement was -4.2%.

In the case of `COc1ccc(NC(=O)/C=C2\NC(C)(C)Cc3ccccc32)cc1`, the displacement is -1.3%.

Regarding `Cc1cccc2c1N(C(=O)CN1C(=O)c3ccccc3C1=O)C(C)(C)c1ssc(=S)c1-2`, the displacement is -5%.

`COc1ccc(CCNC(=S)NC(=O)c2ccccc2)cc1OC`: the displacement turned out to be 19%.

On to `Brc1ccccc1-c1nc(-c2cccnc2)no1`, for which the displacement was -7.8%.

For the compound `COc1ccc(C=C2NC(=S)N(c3ccccc3)C2=O)c(OC)c1`, the displacement was found to be 3.7%.

As to `O=C(/C=C/c1ccccc1)OCCN=C1NS(=O)(=O)c2ccccc21`, the displacement is 9.1%.

With `CCOC(=O)C1=C(C)N=c2s/c(=C\c3ccc([N+](=O)[O-])o3)c(=O)n2C1c1ccc(C)cc1` (configuration not stated), the displacement came out at 12.6%.

For `O=C(Nc1ccccc1)c1ccc(-c2ccccc2)cc1`, the displacement was determined as 3.8%.

As for `Fc1ccccc1C=NN1CCN(Cc2ccccc2Cl)CC1`, the displacement is -6%.

On to `CCC(=O)N1N=C(c2ccccc2)CC1c1ccc([N+](=O)[O-])cc1` (configuration not stated), for which the displacement was -13%.

On to `COc1ccc(S(=O)(=O)Nc2ccc(C)c(Cl)c2)cc1OC`, for which the displacement turned out to be 13.7%.
